In the supplement of paper PMC4604168 (melanoma cell lines):
Some of the results follow. Many values rest on one well or one pass, so single values are uncertain.

Legend:
Test in all cases: cell count relative to DMSO control; melanoma cells; higher = more viable cells
Settings in all cases: library dose: low library concentration; 72 h
[1] = tested on: MZ2-MEL
[2] = tested on: MeWo
[3] = tested on: RPMI7951
[4] = tested on: RVH-421
[5] = tested on: SkMel28
[6] = tested on: SkMel2
[7] = tested on: SkMel30
[8] = tested on: SkMel5
[9] = tested on: UACC257
[10] = tested on: UACC62
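Note: cell number obtained by counting DAPI-stained nuclei in high-throughput microscope images with image analysis software, screen run in 1,536-well plates.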

| Structure (SMILES) | cell count [1] [%] | cell count [2] [%] | cell count [3] [%] | cell count [4] [%] | cell count [5] [%] | cell count [6] [%] | cell count [7] [%] | cell count [8] [%] | cell count [9] [%] | cell count [10] [%] |
| --- | --- | --- | --- | --- | --- | --- | --- | --- | --- | --- |
| O=C(Nc1cc(C(F)(F)F)cc(C(F)(F)F)c1)c1cc(Cl)ccc1O + Cc1cc(N2CCOCC2)cc2[nH]c(-c3c(NC[C@@H](O)c4cccc(Cl)c4)cc[nH]c3=O)nc12 [BMS536924] (first compound 0.016 µM, partner dose 0.2 µM) | 107 | 87.2 | 97.3 | 132 | 69.2 | 86.4 | 91.8 | 83.6 | 73.3 | 100 |
| O=C(O)[C@@H]1[O][Sb](=[O])([O][Sb]2(=[O])[O][C@H]([C@H](O)CO)[C@H](O)[C@H](C(=O)O)[O]2)[O][C@H]([C@H](O)CO)[C@@H]1O (stereo not given in full) [stibogluconate] + Cc1cc(N2CCOCC2)cc2[nH]c(-c3c(NC[C@@H](O)c4cccc(Cl)c4)cc[nH]c3=O)nc12 [BMS536924] (first compound 2 µM, partner dose 0.2 µM) | 111 | 87.2 | 122 | 126 | 103 | 89.9 | 95 | 87 | 92.2 | 89.5 |
| O=C(Nc1cc(C(F)(F)F)cc(C(F)(F)F)c1)c1cc(Cl)ccc1O + CN(C)S(=O)(=O)c1ccc2c(c1)/C(=C/c1cc3c([nH]1)CCCC3)C(=O)N2 [SU6656] (first compound 0.016 µM, partner dose 0.4 µM) | 106 | 81.9 | 106 | 104 | 77.1 | 97.7 | 58.8 | 86.3 | 103 | 69.2 |
| O=C(O)[C@@H]1[O][Sb](=[O])([O][Sb]2(=[O])[O][C@H]([C@H](O)CO)[C@H](O)[C@H](C(=O)O)[O]2)[O][C@H]([C@H](O)CO)[C@@H]1O (stereo not given in full) [stibogluconate] + NCC(=O)Nc1ccc(-n2nc(C(F)(F)F)cc2-c2ccc3c(ccc4ccccc43)c2)cc1 [OSU03012] (first compound 2 µM, partner dose 1 µM) | 98.4 | 72.2 | 111 | 95.2 | 85.5 | 99.4 | 65.8 | 88.8 | 115 | 101 |
| Cn1nnc2c(C(N)=O)ncn2c1=O [temozolomide] + Cc1ccc(NC(=O)c2cccc(N(C)C)c2)cc1NC(=O)c1ccc(O)cc1 [ZM336372] (first compound 2 µM, partner dose 2 µM) | 75.2 | 102 | 102 | 123 | 73 | 118 | 79.6 | 107 | 100 | 75.2 |
| O=C(Nc1cc(C(F)(F)F)cc(C(F)(F)F)c1)c1cc(Cl)ccc1O + COc1ccc(COc2ccc(Cc3cnc(N)nc3N)cc2OC)cc1 [GW2580] (first compound 0.016 µM, partner dose 1 µM) | 92.8 | 115 | 92.9 | 98.3 | 93.9 | 110 | 104 | 78.8 | 98.9 | 88.3 |
| O=C(Nc1cc(C(F)(F)F)cc(C(F)(F)F)c1)c1cc(Cl)ccc1O + Cn1cncc1[C@@](N)(c1ccc(Cl)cc1)c1ccc2c(c1)c(-c1cccc(Cl)c1)cc(=O)n2C [tipifarnib] (first compound 0.016 µM, partner dose 0.01 µM) | 94.5 | 85.9 | 78.1 | 104 | 78.2 | 79.4 | 92.1 | 83.9 | 74.5 | 63.4 |
| O=C(Nc1cc(C(F)(F)F)cc(C(F)(F)F)c1)c1cc(Cl)ccc1O + CCN(CC)CCCCNc1ncc2cc(-c3cc(OC)cc(OC)c3)c(NC(=O)NC(C)(C)C)nc2n1 [PD173074] (first compound 0.016 µM, partner dose 0.1 µM) | 104 | 108 | 104 | 111 | 100 | 104 | 97.5 | 109 | 85.2 | 100 |
| O=C(Nc1cc(C(F)(F)F)cc(C(F)(F)F)c1)c1cc(Cl)ccc1O + O=c1cc(-c2cccc3c2Sc2ccccc2S3)oc(N2CCOCC2)c1 [KU55933] (first compound 0.016 µM, partner dose 1 µM) | 95 | 92.6 | 89.7 | 141 | 105 | 93.6 | 87.5 | 112 | 129 | 99.1 |
| Cc1cc(N2CCOCC2)cc2[nH]c(-c3c(NC[C@@H](O)c4cccc(Cl)c4)cc[nH]c3=O)nc12 + Cn1cncc1[C@@](N)(c1ccc(Cl)cc1)c1ccc2c(c1)c(-c1cccc(Cl)c1)cc(=O)n2C [tipifarnib] (first compound 0.2 µM, partner dose 0.01 µM) | 89.6 | 81.6 | 85.9 | 94 | 93.6 | 76 | 92.1 | 97.2 | 53.3 | 59.8 |
| Cn1nnc2c(C(N)=O)ncn2c1=O [temozolomide] + O=C(CCCCCCC(=O)Nc1ccccc1)NO [vorinostat] (first compound 2 µM, partner dose 0.08 µM) | 98.1 | 104 | 87.6 | 92.9 | 69.1 | 106 | 103 | 101 | 88 | 86.1 |
| O=C(Nc1cc(C(F)(F)F)cc(C(F)(F)F)c1)c1cc(Cl)ccc1O + O=C(Nc1ccccc1)c1cc([N+](=O)[O-])ccc1Cl [GW9662] (first compound 0.016 µM, partner dose 2 µM) | 92.4 | 106 | 110 | 101 | 90.4 | 87.6 | 87.2 | 94.4 | 65.9 | 72.5 |
| O=C(O)[C@@H]1[O][Sb](=[O])([O][Sb]2(=[O])[O][C@H]([C@H](O)CO)[C@H](O)[C@H](C(=O)O)[O]2)[O][C@H]([C@H](O)CO)[C@@H]1O (stereo not given in full) [stibogluconate] + COc1ccc(-c2ccc3c(N4CCOCC4)nc(N4C[C@@H](C)O[C@@H](C)C4)nc3n2)cc1CO [KU0063794] (first compound 2 µM, partner dose 0.02 µM) | 96.2 | 87.4 | 94.1 | 14.4 | 89.3 | 90.4 | 88.2 | 106 | 83.6 | 103 |
| O=C(Nc1cc(C(F)(F)F)cc(C(F)(F)F)c1)c1cc(Cl)ccc1O + OCCn1cc(-c2cnc3nnn(Cc4ccc5ncccc5c4)c3n2)cn1 [PF04217903] (first compound 0.016 µM, partner dose 1 µM) | 101 | 109 | 104 | 94.2 | 90.8 | 89.7 | 115 | 91.2 | 98.3 | 90.9 |
| O=C(Nc1cc(C(F)(F)F)cc(C(F)(F)F)c1)c1cc(Cl)ccc1O + COc1cc2c(Oc3ccc4[nH]c(C)cc4c3F)ncnc2cc1OCCCN1CCCC1 [cediranib] (first compound 0.016 µM, partner dose 0.4 µM) | 98.2 | 91 | 90.4 | 89.3 | 91.1 | 97.5 | 81 | 97.8 | 84.1 | 92.3 |
| O=C(Nc1cc(C(F)(F)F)cc(C(F)(F)F)c1)c1cc(Cl)ccc1O + O=S(=O)(c1ccccc1)N(CC(F)(F)F)c1ccc(C(O)(C(F)(F)F)C(F)(F)F)cc1 [T0901317] (first compound 0.016 µM, partner dose 1.4 µM) | 91.3 | 95.9 | 81.9 | 94.2 | 110 | 98.6 | 88.1 | 80 | 80.2 | 89.1 |
| Cc1cc(N2CCOCC2)cc2[nH]c(-c3c(NC[C@@H](O)c4cccc(Cl)c4)cc[nH]c3=O)nc12 + O=C(O)c1ccc(-c2c[nH]c3ncc(-c4ccccc4)cc23)cc1C1CCCC1 [GSK650394] (first compound 0.2 µM, partner dose 0.16 µM) | 89.4 | 84.5 | 91.4 | 92.8 | 88.1 | 82.3 | 75.8 | 89.4 | 81.5 | 82.3 |
| Cn1nnc2c(C(N)=O)ncn2c1=O [temozolomide] + CC(C)(C)c1cnc(CSc2cnc(NC(=O)C3CCNCC3)s2)o1 [SNS-032] (first compound 2 µM, partner dose 0.01 µM) | 96.3 | 101 | 83.4 | 104 | 74.7 | 110 | 128 | 112 | 88.5 | 66.3 |
| O=C(O)c1ccc2c(c1)nc(Nc1cccc(Cl)c1)c1ccncc12 + Cn1cncc1[C@@](N)(c1ccc(Cl)cc1)c1ccc2c(c1)c(-c1cccc(Cl)c1)cc(=O)n2C [tipifarnib] (first compound 0.4 µM, partner dose 0.01 µM) | 101 | 93.1 | 94.5 | 94 | 91.1 | 85.9 | 94.8 | 117 | 90.3 | 73.6 |
| Cc1cc(N2CCOCC2)cc2[nH]c(-c3c(NC[C@@H](O)c4cccc(Cl)c4)cc[nH]c3=O)nc12 + O=C(Nc1cccc(Cl)c1)Nc1ncc(CCNc2ncnc3ccsc23)s1 [SNS314] (first compound 0.2 µM, partner dose 0.0008 µM) | 107 | 91.3 | 93.6 | 76.3 | 88.6 | 84.8 | 92 | 88.9 | 74.4 | 88.2 |
| Cc1cc(N2CCOCC2)cc2[nH]c(-c3c(NC[C@@H](O)c4cccc(Cl)c4)cc[nH]c3=O)nc12 + C[C@@H]1CCN(C(=O)CC#N)C[C@@H]1N(C)c1ncnc2[nH]ccc12 [CP690550] (first compound 0.2 µM, partner dose 1 µM) | 92 | 80.5 | 104 | 87.4 | 107 | 87.9 | 92.4 | 93.8 | 84.9 | 107 |
